The values that follow are results of earlier work, collected in publication PMC11006913.

Positions count from the first letter of the chain named. The list shows a part of the results.

Among the targets are ARX (Homo sapiens) (UniProt Q96QS3); ARX L343Q (Homo sapiens) (UniProt Q96QS3); ARX P353L (Homo sapiens) (UniProt Q96QS3); ARX P353R (Homo sapiens) (UniProt Q96QS3); ARX R332H (Homo sapiens) (UniProt Q96QS3); ARX T333N (Homo sapiens) (UniProt Q96QS3); ISX (Homo sapiens) (UniProt Q2M1V0); ISX R83Q (Homo sapiens) (UniProt Q2M1V0).
Common to all, as to conditions: PBM; conditions not shown; double strand, one strand shown; scale: upbm affinity estimate (log intensity, higher = more binding, comparable within an allelic series)
In series [1] the target is T1, HESX1 E149K (Homo sapiens) (UniProt Q9UBX0).
T1 sequence: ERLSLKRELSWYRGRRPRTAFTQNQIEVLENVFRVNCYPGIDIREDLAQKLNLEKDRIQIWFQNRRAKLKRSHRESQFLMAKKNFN

Series [2] addresses T2, HESX1 N125S (Homo sapiens) (UniProt Q9UBX0).
T2 sequence: T1 sequence with N31S, K55E

In series [3] the target is T3, HESX1 R160C (Homo sapiens) (UniProt Q9UBX0).
T3 sequence: T1 sequence with K55E, R66C

Series [4] concerns the target PROP1 R112Q (Homo sapiens) (UniProt O75360).
In series [5] the target is PROP1 R99Q (Homo sapiens) (UniProt O75360).
Series [6] concerns the target HOXD13 I297V (Homo sapiens) (UniProt P35453).
The target in series [7] is HOXD13 I322L (Homo sapiens) (UniProt P35453).
Series [8] deals with HOXD13 N298S (Homo sapiens) (UniProt P35453).
Series [9] has as its target HOXD13 Q325K (Homo sapiens) (UniProt P35453).
In series [10] the target is HOXD13 Q325R (Homo sapiens) (UniProt P35453).
The target of series [11] is HOXD13 R306W (Homo sapiens) (UniProt P35453).
Series [12] has as its target HOXD13 S316C (Homo sapiens) (UniProt P35453).

Take GGGGCGTA [8-mer GGGGCGTA]: the binding signal with ARX (Homo sapiens) was 10.3; in the series with ARX L343Q (Homo sapiens), 10.2; with ARX P353L (Homo sapiens) it was 10.3; with ARX P353R (Homo sapiens) it was 10; with ARX R332H (Homo sapiens), 10.1; in the series with ARX T333N (Homo sapiens), 10.4. The binding signal in the series with ISX (Homo sapiens) was 9.75; with ISX R83Q (Homo sapiens), 9.83.

Consider CTCAATTA [8-mer CTCAATTA], for which the binding signal was 12.8 in the series with ARX (Homo sapiens); 10.8 in the series with ARX L343Q (Homo sapiens); 12.8 with ARX P353L (Homo sapiens); 10.7 with ARX P353R (Homo sapiens); 11 with ARX R332H (Homo sapiens); 12 with ARX T333N (Homo sapiens). In addition, the binding signal in series [1] is 11.8; in series [2] it was 12.4; in series [3], 10.3; with ISX (Homo sapiens), 15.1; in the series with ISX R83Q (Homo sapiens), 14; in series [4], 12.8. Also, the binding signal in [5] is 12.3.

As to CAATTATA [8-mer CAATTATA], the binding signal is 12.7 with ARX (Homo sapiens); 10.9 with ARX L343Q (Homo sapiens); 12.3 in the series with ARX P353L (Homo sapiens); 10.9 with ARX P353R (Homo sapiens); 11.1 with ARX R332H (Homo sapiens); 12 in the series with ARX T333N (Homo sapiens). For the same sequence, the binding signal in series [1] is 11.8; in [2], 12.8; in series [3], 10.4; in the series with ISX (Homo sapiens), 15; in the series with ISX R83Q (Homo sapiens) it was 13.8; in series [4], 12.7. Further, the binding signal in series [5] is 12.3.

Consider GCTCGGCC [8-mer GCTCGGCC], for which the binding signal with ARX (Homo sapiens) was 10.1; with ARX L343Q (Homo sapiens), 10.1; with ARX P353L (Homo sapiens) it was 10.2; with ARX P353R (Homo sapiens), 10; with ARX R332H (Homo sapiens), 10; with ARX T333N (Homo sapiens), 10.1. Moreover, the binding signal is 9.36 in series [6]; 9.31 in series [7]; 9.33 in series [8]; 9.37 in series [9]; 9.39 in [10]; 9.33 in [11]. Besides, the binding signal in [12] is 9.44.

With GAACCCCC [8-mer GAACCCCC], the binding signal in the series with ARX (Homo sapiens) is 10; with ARX L343Q (Homo sapiens), 10.1; with ARX P353L (Homo sapiens), 10.1; with ARX P353R (Homo sapiens), 9.87; with ARX R332H (Homo sapiens), 9.99; with ARX T333N (Homo sapiens) it was 10.1. For the same sequence, the binding signal in series [6] was 9.39; in series [7], 9.31; in series [8], 9.42; in series [9], 9.42; in [10] it was 9.32; in series [11], 9.2. Further, the binding signal in series [12] was 9.35.

Turning to AATTAAAT [8-mer AATTAAAT], the binding signal in the series with ARX (Homo sapiens) is 12.7; in the series with ARX L343Q (Homo sapiens) it was 10.8; with ARX P353L (Homo sapiens), 12.2; with ARX P353R (Homo sapiens), 10.7; with ARX R332H (Homo sapiens), 11; in the series with ARX T333N (Homo sapiens), 12. In addition, the binding signal was 11.2 in [1]; 11.3 in series [2]; 10.3 in series [3]; 14.7 with ISX (Homo sapiens); 13.5 with ISX R83Q (Homo sapiens); 12.7 in series [4]. The binding signal in [5] is 12.1.

Turning to TCAATTAA [8-mer TCAATTAA], the binding signal with ARX (Homo sapiens) was 12.9; with ARX L343Q (Homo sapiens), 10.8; with ARX P353L (Homo sapiens), 12.6; with ARX P353R (Homo sapiens), 10.7; with ARX R332H (Homo sapiens), 11; with ARX T333N (Homo sapiens), 12.1. For the same sequence, the binding signal is 11.8 in [1]; 13.1 in series [2]; 10.2 in series [3]; 15.5 in the series with ISX (Homo sapiens); 14.9 with ISX R83Q (Homo sapiens); 12.8 in series [4]. Also, in series [5], the binding signal is 12.2.

Regarding TAAATTAA [8-mer TAAATTAA], the binding signal in the series with ARX (Homo sapiens) is 12.7; with ARX L343Q (Homo sapiens), 10.7; with ARX P353L (Homo sapiens) it was 12.1; in the series with ARX P353R (Homo sapiens) it was 10.6; with ARX R332H (Homo sapiens), 10.8; with ARX T333N (Homo sapiens) it was 11.9. In addition, the binding signal in series [1] was 11.1; in series [2], 11.3; in [3], 10.2; in the series with ISX (Homo sapiens) it was 14.8; with ISX R83Q (Homo sapiens) it was 13.4; in series [4], 12.6. For the same sequence, in [5], the binding signal was 11.9.

With ATTAATCA [8-mer ATTAATCA], the binding signal with ARX (Homo sapiens) is 12.8; in the series with ARX L343Q (Homo sapiens), 11; in the series with ARX P353L (Homo sapiens), 12.2; with ARX P353R (Homo sapiens) it was 10.9; with ARX R332H (Homo sapiens), 11.2; with ARX T333N (Homo sapiens) it was 12. The binding signal is 11.5 in series [1]; 11.2 in series [2]; 10.5 in series [3]; 12.7 in series [4]; 12.1 in series [5].

Take ATTAATGA [8-mer ATTAATGA]: the binding signal with ARX (Homo sapiens) was 12.8; with ARX L343Q (Homo sapiens), 10.9; in the series with ARX P353L (Homo sapiens), 12.4; with ARX P353R (Homo sapiens) it was 10.8; with ARX R332H (Homo sapiens), 11.1; with ARX T333N (Homo sapiens), 11.9. For the same sequence, the binding signal is 11.2 in series [2]; 12.3 in [6]; 11.4 in [7]; 12.6 in series [8]; 11.4 in [9]; 11.9 in series [10]. Moreover, the binding signal in series [11] was 11.6; in [12], 12.2; with ISX (Homo sapiens), 14.7; with ISX R83Q (Homo sapiens), 13.5; in [4], 12.7.

For CCCCCCGA [8-mer CCCCCCGA], the binding signal in the series with ARX (Homo sapiens) was 10.2; with ARX L343Q (Homo sapiens), 10.1; in the series with ARX P353L (Homo sapiens) it was 10.2; in the series with ARX P353R (Homo sapiens), 9.92; with ARX R332H (Homo sapiens) it was 9.99; with ARX T333N (Homo sapiens) it was 10.3. In addition, the values for the binding signal with ISX (Homo sapiens) and with ISX R83Q (Homo sapiens) were 9.91 and 9.79, respectively.
